From publication PMC12820563, “FoxP3 forms a head-to-head dimer in vivo and stabilizes its multimerization on adjacent microsatellites”
The other results are listed elsewhere or left out.

What follows are sequences tested against T1, MBP-FoxP1dN (Mus musculus, UniProt P58462 326-579) (assay: PD-seq (MBP pull-down with sequencing); 20 mM Tris-HCl pH 7.5, 100 mM NaCl, 1.5 mM MgCl2, 0.4 uM protein, 0.1 uM dsDNA library, 30 min, room temperature, amylose pull-down; high values mean tight binding). Conditions: protein: recombinant; tags: His6-MBP; chain copies: 2; dsDNA, one strand shown.
T1 sequence: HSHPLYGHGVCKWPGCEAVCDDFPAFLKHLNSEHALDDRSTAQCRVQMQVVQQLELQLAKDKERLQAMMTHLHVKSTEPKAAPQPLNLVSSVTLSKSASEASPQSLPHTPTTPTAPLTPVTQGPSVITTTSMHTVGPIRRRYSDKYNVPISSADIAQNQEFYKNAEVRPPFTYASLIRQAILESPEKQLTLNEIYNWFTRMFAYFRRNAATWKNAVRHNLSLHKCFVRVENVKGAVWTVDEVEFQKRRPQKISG
Outline: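 A degenerate double-stranded DNA library, filled in with Klenow, was added at 0.1 µM to 0.4 µM His6-MBP-tagged mouse FoxP3 or FoxP1 fragment lacking the N-terminus, expressed in E. coli. Incubation lasted 30 min at room temperature in Tris pH 7.5 buffer with NaCl and MgCl2, after which complexes were collected on amylose resin, washed three times, digested with proteinase K to free the DNA, barcoded by PCR and sequenced by Illumina. Binding is the pooled-replicate reads-per-million enrichment of pull-down over input.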
“GATGATTGTTCTCCCAGCTGATGAATTGAGTAGTTCGAGTAAACAAATTTTCCTAATCTTTCTGTTCAAGCGCCATCTAC” was tested, and the binding signal was 0.925 RPM ratio (pull-down/input).
“GATGATTGTTCTCCCAGCTGATGAATTCGTGCTATCGAGTAAACAAATTTTCCTAATCTTTCTGTTCAAGCGCCATCTAC” was tested, and the binding signal was 1.05 RPM ratio (pull-down/input).
“GATGATTGTTCTCCCAGCTGATGAATTTATGTTGTCGAGTAAACAAATTTTCCTAATCTTTCTGTTCAAGCGCCATCTAC” was tested, and the binding signal was 2.86 RPM ratio (pull-down/input).
With “GATGATTGTTCTCCCAGCTGATGAATTTTTGTGGTCGAGTAAACAAATTTTCCTAATCTTTCTGTTCAAGCGCCATCTAC” the binding signal was 1.23 RPM ratio (pull-down/input).
“GATGATTGTTCTCCCAGCTGATGAATTTAAATTATCGAGTAAACAAATTTTCCTAATCTTTCTGTTCAAGCGCCATCTAC” was tested, and the binding signal was 1.02 RPM ratio (pull-down/input).
“GATGATTGTTCTCCCAGCTGATGAATTACGCTTCTCGAGTAAACAAATTTTCCTAATCTTTCTGTTCAAGCGCCATCTAC” was tested, and the binding signal was 0.995 RPM ratio (pull-down/input).
“GATGATTGTTCTCCCAGCTGATGAATTCGTTTGGTCGAGTAAACAAATTTTCCTAATCTTTCTGTTCAAGCGCCATCTAC” was tested, and the binding signal was 0.844 RPM ratio (pull-down/input).
For “GATGATTGTTCTCCCAGCTGATGAATTAGCTATCTCGAGTAAACAAATTTTCCTAATCTTTCTGTTCAAGCGCCATCTAC”, the binding signal was 0.958 RPM ratio (pull-down/input).
With “GATGATTGTTCTCCCAGCTGATGAATTTTATATATCGAGTAAACAAATTTTCCTAATCTTTCTGTTCAAGCGCCATCTAC” the binding signal was 1.11 RPM ratio (pull-down/input).
In the case of “GATGATTGTTCTCCCAGCTGATGAATTCGTTCCGTCGAGTAAACAAATTTTCCTAATCTTTCTGTTCAAGCGCCATCTAC”, the binding signal is reported as 0.906 RPM ratio (pull-down/input).
With “GATGATTGTTCTCCCAGCTGATGAATTAGTGCCTTCGAGTAAACAAATTTTCCTAATCTTTCTGTTCAAGCGCCATCTAC” the binding signal was 0.947 RPM ratio (pull-down/input).
“GATGATTGTTCTCCCAGCTGATGAATTTACTTATTCGAGTAAACAAATTTTCCTAATCTTTCTGTTCAAGCGCCATCTAC” was tested, and the binding signal was 1.53 RPM ratio (pull-down/input).
In the case of “GATGATTGTTCTCCCAGCTGATGAATTTCAACCATCGAGTAAACAAATTTTCCTAATCTTTCTGTTCAAGCGCCATCTAC”, the binding signal is reported as 0.972 RPM ratio (pull-down/input).
For “GATGATTGTTCTCCCAGCTGATGAATTGGGACCCTCGAGTAAACAAATTTTCCTAATCTTTCTGTTCAAGCGCCATCTAC”, the binding signal was 0.788 RPM ratio (pull-down/input).
With “GATGATTGTTCTCCCAGCTGATGAATTGACAGAGTCGAGTAAACAAATTTTCCTAATCTTTCTGTTCAAGCGCCATCTAC” the binding signal was 1.07 RPM ratio (pull-down/input).
In the case of “GATGATTGTTCTCCCAGCTGATGAATTTGTTATGTCGAGTAAACAAATTTTCCTAATCTTTCTGTTCAAGCGCCATCTAC”, the binding signal is reported as 1.55 RPM ratio (pull-down/input).
With “GATGATTGTTCTCCCAGCTGATGAATTCAAGGGGTCGAGTAAACAAATTTTCCTAATCTTTCTGTTCAAGCGCCATCTAC” the binding signal was 0.781 RPM ratio (pull-down/input).
“GATGATTGTTCTCCCAGCTGATGAATTCCGTTCGTCGAGTAAACAAATTTTCCTAATCTTTCTGTTCAAGCGCCATCTAC” was tested, and the binding signal was 0.83 RPM ratio (pull-down/input).
For “GATGATTGTTCTCCCAGCTGATGAATTACTAGACTCGAGTAAACAAATTTTCCTAATCTTTCTGTTCAAGCGCCATCTAC”, the binding signal was 0.985 RPM ratio (pull-down/input).
“GATGATTGTTCTCCCAGCTGATGAATTTCTTCGATCGAGTAAACAAATTTTCCTAATCTTTCTGTTCAAGCGCCATCTAC” was tested, and the binding signal was 0.922 RPM ratio (pull-down/input).
“GATGATTGTTCTCCCAGCTGATGAATTACAAGTATCGAGTAAACAAATTTTCCTAATCTTTCTGTTCAAGCGCCATCTAC” was tested, and the binding signal was 1.44 RPM ratio (pull-down/input).
For “GATGATTGTTCTCCCAGCTGATGAATTGGTCTACTCGAGTAAACAAATTTTCCTAATCTTTCTGTTCAAGCGCCATCTAC”, the binding signal was 0.873 RPM ratio (pull-down/input).
With “GATGATTGTTCTCCCAGCTGATGAATTAACTCTGTCGAGTAAACAAATTTTCCTAATCTTTCTGTTCAAGCGCCATCTAC” the binding signal was 0.877 RPM ratio (pull-down/input).
In the case of “GATGATTGTTCTCCCAGCTGATGAATTCGCTGGTTCGAGTAAACAAATTTTCCTAATCTTTCTGTTCAAGCGCCATCTAC”, the binding signal is reported as 0.846 RPM ratio (pull-down/input).
For “GATGATTGTTCTCCCAGCTGATGAATTGTTCGCTTCGAGTAAACAAATTTTCCTAATCTTTCTGTTCAAGCGCCATCTAC”, the binding signal was 1.05 RPM ratio (pull-down/input).
For “GATGATTGTTCTCCCAGCTGATGAATTCCGAGCATCGAGTAAACAAATTTTCCTAATCTTTCTGTTCAAGCGCCATCTAC”, the binding signal was 0.952 RPM ratio (pull-down/input).
In the case of “GATGATTGTTCTCCCAGCTGATGAATTGACGCATTCGAGTAAACAAATTTTCCTAATCTTTCTGTTCAAGCGCCATCTAC”, the binding signal is reported as 1.39 RPM ratio (pull-down/input).
With “GATGATTGTTCTCCCAGCTGATGAATTAGCCACCTCGAGTAAACAAATTTTCCTAATCTTTCTGTTCAAGCGCCATCTAC” the binding signal was 0.812 RPM ratio (pull-down/input).
With “GATGATTGTTCTCCCAGCTGATGAATTAAGTCATTCGAGTAAACAAATTTTCCTAATCTTTCTGTTCAAGCGCCATCTAC” the binding signal was 0.996 RPM ratio (pull-down/input).
With “GATGATTGTTCTCCCAGCTGATGAATTGCCAGGATCGAGTAAACAAATTTTCCTAATCTTTCTGTTCAAGCGCCATCTAC” the binding signal was 0.831 RPM ratio (pull-down/input).
For “GATGATTGTTCTCCCAGCTGATGAATTCGCGCAATCGAGTAAACAAATTTTCCTAATCTTTCTGTTCAAGCGCCATCTAC”, the binding signal was 1.13 RPM ratio (pull-down/input).
With “GATGATTGTTCTCCCAGCTGATGAATTTACTTAATCGAGTAAACAAATTTTCCTAATCTTTCTGTTCAAGCGCCATCTAC” the binding signal was 1.48 RPM ratio (pull-down/input).
